# These are yes or no findings as the source states them, for the method shown. In cells and extracts the contact can be indirect. Some results given as binding are weak or reduced against the parent protein; the word gives no strength.
# Amino acid sequences for entries named in this document (tags omitted). A change or cut given only in a name is not applied to a line headed by its entry. Chains listed by the source or under a name are the forms on record and can include a tag or linker. Residues count along the entry.
# HA-tagged BMP receptor type II long form (BMPRII-LF-HA), wild type (Q13873, residues 27-1038): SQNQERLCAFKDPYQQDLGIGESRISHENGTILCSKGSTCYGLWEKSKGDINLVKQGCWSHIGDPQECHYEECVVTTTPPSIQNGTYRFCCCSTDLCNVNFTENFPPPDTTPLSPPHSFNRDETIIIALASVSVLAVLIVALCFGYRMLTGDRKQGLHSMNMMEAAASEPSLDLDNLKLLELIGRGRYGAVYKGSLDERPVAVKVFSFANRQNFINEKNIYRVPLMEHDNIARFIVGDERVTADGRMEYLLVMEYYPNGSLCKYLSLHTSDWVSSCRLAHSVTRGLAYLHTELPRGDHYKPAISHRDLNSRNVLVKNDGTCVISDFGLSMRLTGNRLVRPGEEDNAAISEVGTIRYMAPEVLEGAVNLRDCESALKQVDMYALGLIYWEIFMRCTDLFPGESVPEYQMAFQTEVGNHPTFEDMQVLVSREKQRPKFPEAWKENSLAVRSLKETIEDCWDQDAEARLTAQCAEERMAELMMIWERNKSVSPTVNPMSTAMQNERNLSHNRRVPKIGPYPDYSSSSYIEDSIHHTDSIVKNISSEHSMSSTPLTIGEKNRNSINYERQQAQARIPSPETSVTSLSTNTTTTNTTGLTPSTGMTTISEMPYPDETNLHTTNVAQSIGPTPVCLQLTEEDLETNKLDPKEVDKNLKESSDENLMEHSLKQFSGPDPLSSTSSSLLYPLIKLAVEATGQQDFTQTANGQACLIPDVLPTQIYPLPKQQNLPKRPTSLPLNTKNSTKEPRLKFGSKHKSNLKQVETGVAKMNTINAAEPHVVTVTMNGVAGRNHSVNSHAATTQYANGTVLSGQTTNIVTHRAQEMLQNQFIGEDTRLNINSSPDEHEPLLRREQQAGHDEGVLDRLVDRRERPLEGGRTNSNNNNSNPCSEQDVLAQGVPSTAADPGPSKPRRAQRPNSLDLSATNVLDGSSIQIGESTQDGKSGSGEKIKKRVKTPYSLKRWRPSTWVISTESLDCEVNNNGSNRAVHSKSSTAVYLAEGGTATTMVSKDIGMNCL
# BMP receptor type II short form (BMPRII-SF), overexpressed (Q13873-2, form named): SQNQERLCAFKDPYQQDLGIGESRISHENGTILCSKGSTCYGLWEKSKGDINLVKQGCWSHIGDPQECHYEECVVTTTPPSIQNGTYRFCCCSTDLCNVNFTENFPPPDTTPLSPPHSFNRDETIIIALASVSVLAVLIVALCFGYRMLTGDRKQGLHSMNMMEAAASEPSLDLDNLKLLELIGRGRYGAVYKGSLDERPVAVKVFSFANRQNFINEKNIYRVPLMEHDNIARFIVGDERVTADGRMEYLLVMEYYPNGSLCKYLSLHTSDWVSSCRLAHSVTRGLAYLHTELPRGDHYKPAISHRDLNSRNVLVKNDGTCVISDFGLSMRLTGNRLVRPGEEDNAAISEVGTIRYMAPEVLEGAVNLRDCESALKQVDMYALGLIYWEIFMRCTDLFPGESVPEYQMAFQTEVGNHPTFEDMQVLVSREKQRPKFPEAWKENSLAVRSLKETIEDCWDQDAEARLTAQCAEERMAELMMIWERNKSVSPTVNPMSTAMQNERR
# HA-tagged kinase-dead BMPRII long form K230R (BMPRII-LF-K230R) (Q13873, form named): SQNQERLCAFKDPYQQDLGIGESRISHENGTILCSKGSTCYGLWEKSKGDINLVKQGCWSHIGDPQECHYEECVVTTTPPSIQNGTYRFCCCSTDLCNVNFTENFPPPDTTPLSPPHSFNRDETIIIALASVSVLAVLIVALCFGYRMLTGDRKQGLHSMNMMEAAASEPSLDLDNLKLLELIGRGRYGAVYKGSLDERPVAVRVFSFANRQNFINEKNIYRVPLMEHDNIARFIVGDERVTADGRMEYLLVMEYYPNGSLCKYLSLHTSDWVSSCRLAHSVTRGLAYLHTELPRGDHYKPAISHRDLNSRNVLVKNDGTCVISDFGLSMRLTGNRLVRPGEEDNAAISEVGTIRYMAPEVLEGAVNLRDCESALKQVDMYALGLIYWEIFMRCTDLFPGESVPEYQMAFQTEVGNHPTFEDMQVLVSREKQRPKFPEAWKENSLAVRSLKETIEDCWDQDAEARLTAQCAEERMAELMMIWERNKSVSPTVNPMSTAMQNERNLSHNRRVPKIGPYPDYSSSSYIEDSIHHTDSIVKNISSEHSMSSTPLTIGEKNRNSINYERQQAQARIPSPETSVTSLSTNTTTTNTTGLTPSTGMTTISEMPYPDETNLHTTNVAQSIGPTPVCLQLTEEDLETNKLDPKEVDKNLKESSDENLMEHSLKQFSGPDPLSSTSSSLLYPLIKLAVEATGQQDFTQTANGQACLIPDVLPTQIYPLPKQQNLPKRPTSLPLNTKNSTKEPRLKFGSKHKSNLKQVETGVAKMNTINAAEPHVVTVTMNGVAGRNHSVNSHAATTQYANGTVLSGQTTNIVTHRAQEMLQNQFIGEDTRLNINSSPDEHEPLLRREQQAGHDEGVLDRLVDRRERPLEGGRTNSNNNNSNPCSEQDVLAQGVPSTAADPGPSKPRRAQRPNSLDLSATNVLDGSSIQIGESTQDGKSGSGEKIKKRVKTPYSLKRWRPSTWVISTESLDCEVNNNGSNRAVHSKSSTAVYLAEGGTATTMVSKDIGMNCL
# HA-tagged BMP receptor type Ib (BMPRIb-HA) (P36898, residues 14-502): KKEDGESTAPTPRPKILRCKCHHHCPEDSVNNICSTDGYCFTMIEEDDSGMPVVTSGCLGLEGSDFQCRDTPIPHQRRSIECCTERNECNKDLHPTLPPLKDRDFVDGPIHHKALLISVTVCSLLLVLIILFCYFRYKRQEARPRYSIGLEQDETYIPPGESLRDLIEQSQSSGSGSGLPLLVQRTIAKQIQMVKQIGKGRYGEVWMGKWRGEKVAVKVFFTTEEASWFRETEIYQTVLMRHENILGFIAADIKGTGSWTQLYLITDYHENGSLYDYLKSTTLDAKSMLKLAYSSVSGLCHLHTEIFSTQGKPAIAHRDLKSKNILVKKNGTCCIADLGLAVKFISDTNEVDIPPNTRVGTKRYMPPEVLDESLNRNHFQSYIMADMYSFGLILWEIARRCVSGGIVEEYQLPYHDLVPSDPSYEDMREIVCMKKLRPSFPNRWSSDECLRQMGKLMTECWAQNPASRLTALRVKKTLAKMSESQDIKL
# kinase-dead BMP receptor type Ib K231R (BMPRIb-K231R) (P36898, form named): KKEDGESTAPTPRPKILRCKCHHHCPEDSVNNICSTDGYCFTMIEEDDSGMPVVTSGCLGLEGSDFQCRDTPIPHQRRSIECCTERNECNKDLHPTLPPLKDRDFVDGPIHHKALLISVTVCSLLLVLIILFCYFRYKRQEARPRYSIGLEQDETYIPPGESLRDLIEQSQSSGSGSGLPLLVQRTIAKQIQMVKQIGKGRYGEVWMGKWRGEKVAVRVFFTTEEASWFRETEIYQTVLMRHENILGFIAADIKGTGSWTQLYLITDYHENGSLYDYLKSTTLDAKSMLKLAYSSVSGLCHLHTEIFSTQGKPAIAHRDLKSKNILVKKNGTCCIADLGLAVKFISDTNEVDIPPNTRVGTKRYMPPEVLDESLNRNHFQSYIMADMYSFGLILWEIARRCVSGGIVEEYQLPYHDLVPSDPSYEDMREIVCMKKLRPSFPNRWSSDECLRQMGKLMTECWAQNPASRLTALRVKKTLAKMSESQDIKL
# UniProt O35607, residues 27-1038: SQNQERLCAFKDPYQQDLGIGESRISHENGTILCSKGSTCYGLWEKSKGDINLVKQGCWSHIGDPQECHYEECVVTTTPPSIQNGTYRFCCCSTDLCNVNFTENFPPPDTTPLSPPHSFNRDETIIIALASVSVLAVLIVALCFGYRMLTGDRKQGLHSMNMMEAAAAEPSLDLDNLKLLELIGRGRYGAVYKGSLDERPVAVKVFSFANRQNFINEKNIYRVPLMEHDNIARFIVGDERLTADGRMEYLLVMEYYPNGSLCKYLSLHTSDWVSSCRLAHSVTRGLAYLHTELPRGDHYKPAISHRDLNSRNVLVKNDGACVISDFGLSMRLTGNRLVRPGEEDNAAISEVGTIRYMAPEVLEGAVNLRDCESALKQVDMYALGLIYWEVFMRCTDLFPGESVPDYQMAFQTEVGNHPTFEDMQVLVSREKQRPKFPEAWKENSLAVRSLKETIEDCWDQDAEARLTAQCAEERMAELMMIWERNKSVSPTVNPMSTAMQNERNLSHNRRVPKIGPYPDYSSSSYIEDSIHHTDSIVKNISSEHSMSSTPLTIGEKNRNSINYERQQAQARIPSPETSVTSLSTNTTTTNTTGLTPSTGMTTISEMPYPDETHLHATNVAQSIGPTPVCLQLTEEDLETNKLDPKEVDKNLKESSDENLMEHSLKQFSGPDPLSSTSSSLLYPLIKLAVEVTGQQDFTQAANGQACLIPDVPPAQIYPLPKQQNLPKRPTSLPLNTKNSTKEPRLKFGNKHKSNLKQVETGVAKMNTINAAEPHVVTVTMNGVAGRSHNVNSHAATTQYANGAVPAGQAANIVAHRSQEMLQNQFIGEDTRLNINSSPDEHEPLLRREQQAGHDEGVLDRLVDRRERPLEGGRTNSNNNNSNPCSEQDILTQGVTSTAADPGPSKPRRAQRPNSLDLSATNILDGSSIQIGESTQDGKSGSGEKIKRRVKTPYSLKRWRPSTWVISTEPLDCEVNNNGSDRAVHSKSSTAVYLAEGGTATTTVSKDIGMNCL
# UniProt P42337: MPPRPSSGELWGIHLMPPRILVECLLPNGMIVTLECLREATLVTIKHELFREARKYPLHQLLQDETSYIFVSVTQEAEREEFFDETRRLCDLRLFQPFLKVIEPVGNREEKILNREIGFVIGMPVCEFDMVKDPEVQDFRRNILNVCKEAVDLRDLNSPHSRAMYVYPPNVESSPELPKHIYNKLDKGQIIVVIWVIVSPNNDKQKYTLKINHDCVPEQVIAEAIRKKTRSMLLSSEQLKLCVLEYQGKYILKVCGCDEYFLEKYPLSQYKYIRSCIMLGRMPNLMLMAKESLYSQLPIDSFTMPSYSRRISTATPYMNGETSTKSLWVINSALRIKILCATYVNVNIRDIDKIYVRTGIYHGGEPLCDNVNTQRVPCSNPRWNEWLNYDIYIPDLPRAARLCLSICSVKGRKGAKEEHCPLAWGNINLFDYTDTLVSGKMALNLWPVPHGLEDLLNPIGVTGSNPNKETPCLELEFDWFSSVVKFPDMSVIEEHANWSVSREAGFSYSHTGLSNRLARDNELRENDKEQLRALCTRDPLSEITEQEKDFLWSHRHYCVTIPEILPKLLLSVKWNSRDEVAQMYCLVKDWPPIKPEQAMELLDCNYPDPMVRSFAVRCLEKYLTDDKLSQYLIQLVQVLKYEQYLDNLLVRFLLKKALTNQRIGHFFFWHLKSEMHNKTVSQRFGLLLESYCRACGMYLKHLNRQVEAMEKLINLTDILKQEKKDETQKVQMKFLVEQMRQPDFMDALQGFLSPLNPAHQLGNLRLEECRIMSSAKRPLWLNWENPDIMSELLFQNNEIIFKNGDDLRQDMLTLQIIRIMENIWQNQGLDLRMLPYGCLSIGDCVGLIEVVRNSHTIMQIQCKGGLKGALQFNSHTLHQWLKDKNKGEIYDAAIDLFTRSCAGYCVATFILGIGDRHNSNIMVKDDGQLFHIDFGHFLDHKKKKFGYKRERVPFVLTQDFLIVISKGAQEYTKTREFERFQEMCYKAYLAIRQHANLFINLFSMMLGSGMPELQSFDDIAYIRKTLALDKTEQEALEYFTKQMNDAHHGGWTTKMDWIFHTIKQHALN
# Columns and labels:
# [1] = biological target: N-terminal flag-tagged p55γ (PI3K regulatory subunit p55 gamma) (mouse) (UniProt Q64143); assay: co-IP; proteins overexpressed in transiently transfected HEK293T cells; precipitation of p55γ (flag-tag mediated in Figure 3A), blot for BMPRII/BMPRIb; modified RIPA buffer with 0.5% SDS and 0.1% Nonidet P-40; with or without co-expressed BMPRIb-HA (co-expression facilitated the BMPRII-p55γ interaction)
# [2] = biological target: endogenous PI3K regulatory subunit p55γ (mouse (endogenous in C2C12)) (UniProt Q64143); assay: co-IP; endogenous proteins from C2C12 cell extracts; precipitation of endogenous p55γ, p85α or p110α; modified RIPA buffer with 0.1% SDS and 0.5% Nonidet P-40; cells stimulated with 10 nM BMP2 for the indicated times (association of BMPRII increased with BMP2), in Figure 5A also insulin or …
# [3] = biological target: endogenous PI3K regulatory subunit p85α (mouse (endogenous in C2C12)) (UniProt P26450); assay: as above
binding [1],binding [2],binding [3],Substance
binds,,,"BMP receptor type II short form (BMPRII-SF), overexpressed (from UniProt Q13873-2 27-530)"
binds,,,"HA-tagged BMP receptor type II long form (BMPRII-LF-HA), wild type (from UniProt Q13873 27-1038)"
no binding,,,HA-tagged BMP receptor type Ib (BMPRIb-HA) (from UniProt P36898 14-502)
binds,,,HA-tagged kinase-dead BMPRII long form K230R (BMPRII-LF-K230R) (from UniProt Q13873 27-1038) (receptor)
,binds,no binding,endogenous BMP receptor type II long form (BMPRII-LF) (from UniProt O35607 27-1038)
,binds,,endogenous class Ia PI3K catalytic subunit p110α (from UniProt P42337 1-1068) (enzyme)
no binding,,,kinase-dead BMP receptor type Ib K231R (BMPRIb-K231R) (from UniProt P36898 14-502)
